# Measured values published in the supplement of paper PMC8728848.
# Some of the results follow.
# B1: F17dG (Escherichia coli), Q47199 (protein)
# chain: MTNFYKVFLAVFILVCCNISQAAVSFIGSTENDVGPSPGSYSRTHAMDNLPFVYNTGNNIGYQNANVWRISKGFCVGLDGKVDLPVVGSLDGQSIYGLTEEVGLLIWMGDTNYSRGTAMSGNSWENVFSGWCVGANTASTQGLSVRVTPVILKRNSSARYSVQKTSIGSIRMRPYNGSSAGSVQTTVNFSLNPFTLNDTVTSCRLLTPSAVNVSLAAISAGQLPSSGDEVVAGTTSLKLQCDAGVTVWATLTDATTPSNRSDILTLTGASTATGVGLRIYKNTDSTPLKFGPDSPVKGNENQWQLSTGTETSPSVRLYVKYVNTGEGINPGTVNGISTFTFSYQ
# Experiments:
# Experiment in all cases: glycan array binding signal (z-score within array); higher = stronger binding
# Conditions in all cases: glycan notation: IUPAC condensed, linker removed
# [1] = target: Man(a1-3)[Man(a1-6)]Man(a1-6)[Man(a1-2)Man(a1-3)]Man(b1-4)GlcNAc(b1-4)GlcNAc
# Summary of the method: (§1)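 From the Consortium for Functional Glycomics database, 3228 arrays were curated, keeping only those whose protein sequence was available. Binding is given as a within-array Z-score averaged across arrays sharing a protein sequence and across linkers. Negative Z-scores can be read as non-binding.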
# [2] = target: Man(a1-3)[Man(a1-6)]Man(a1-6)[Man(a1-3)]Man(b1-4)GlcNAc(b1-4)GlcNAc
# Summary of the method: as §1
# [3] = target: Man(a1-3)[Man(a1-6)]Man(b1-4)GlcNAc(b1-4)GlcNAc
# Summary of the method: as §1
# Man(b1-4)GlcNAc = target: Man(b1-4)GlcNAc
# Summary of the method: as §1
# Neu5Ac(a2-3)Gal = target: Neu5Ac(a2-3)Gal
# Summary of the method: as §1
# [4] = target: Neu5Ac(a2-3)Gal(b1-3)GalNAc
# Summary of the method: as §1
# [5] = target: Neu5Ac(a2-3)Gal(b1-3)GalNAc(b1-3)Gal(a1-4)Gal(b1-4)Glc
# Summary of the method: as §1
# [6] = target: Neu5Ac(a2-3)Gal(b1-3)GalNAc(b1-3)Gal(b1-4)GlcNAc
# Summary of the method: as §1
# [7] = target: Neu5Ac(a2-3)Gal(b1-3)GalNAc(b1-4)[Neu5Ac(a2-3)]Gal(b1-4)Glc
# Summary of the method: as §1
# [8] = target: Neu5Ac(a2-3)Gal(b1-3)GalNAc6S
# Summary of the method: as §1
# [9] = target: Neu5Ac(a2-3)Gal(b1-3)GlcNAc
# Summary of the method: as §1
# [10] = target: Neu5Ac(a2-3)Gal(b1-3)GlcNAc6S
# Summary of the method: as §1
# [11] = target: Neu5Ac(a2-3)Gal(b1-3)[Fuc(a1-4)]GlcNAc
# Summary of the method: as §1
# [12] = target: Neu5Ac(a2-3)Gal(b1-3)[Fuc(a1-4)]GlcNAc(b1-3)Gal(b1-4)[Fuc(a1-3)]GlcNAc
# Summary of the method: as §1
# [13] = target: Neu5Ac(a2-3)Gal(b1-3)[Neu5Ac(a2-3)Gal(b1-4)]GlcNAc
# Summary of the method: as §1
# [14] = target: Neu5Ac(a2-3)Gal(b1-3)[Neu5Ac(a2-6)]GalNAc
# Summary of the method: as §1
# Neu5Ac(a2-3)Gal(b1-4)Glc = target: Neu5Ac(a2-3)Gal(b1-4)Glc
# Summary of the method: as §1
# [15] = target: Neu5Ac(a2-3)Gal(b1-4)GlcNAc
# Summary of the method: as §1
# [16] = target: Neu5Ac(a2-3)Gal(b1-4)GlcNAc(b1-2)Man(a1-3)[Neu5Ac(a2-3)Gal(b1-4)GlcNAc(b1-2)Man(a1-6)]Man(b1-4)GlcNAc(b1-4)GlcNAc
# Summary of the method: as §1
# [17] = target: Neu5Ac(a2-3)Gal(b1-4)GlcNAc(b1-3)Gal(b1-4)GlcNAc
# Summary of the method: as §1
# [18] = target: Neu5Ac(a2-3)Gal(b1-4)GlcNAc(b1-3)Gal(b1-4)GlcNAc(b1-3)Gal(b1-4)GlcNAc
# Summary of the method: as §1
# [19] = target: Neu5Ac(a2-3)Gal(b1-4)GlcNAc(b1-3)Gal(b1-4)[Fuc(a1-3)]GlcNAc
# Summary of the method: as §1
# [20] = target: Neu5Ac(a2-3)Gal(b1-4)GlcNAc6S
# Summary of the method: as §1
# [21] = target: Neu5Ac(a2-3)Gal(b1-4)[Fuc(a1-3)]GlcNAc
# Summary of the method: as §1
# [22] = target: Neu5Ac(a2-3)Gal(b1-4)[Fuc(a1-3)]GlcNAc(b1-3)Gal
# Summary of the method: as §1
# [23] = target: Neu5Ac(a2-3)Gal(b1-4)[Fuc(a1-3)]GlcNAc(b1-3)Gal(b1-4)GlcNAc
# Summary of the method: as §1
# [24] = target: Neu5Ac(a2-3)Gal(b1-4)[Fuc(a1-3)]GlcNAc(b1-3)Gal(b1-4)[Fuc(a1-3)]GlcNAc(b1-3)Gal(b1-4)[Fuc(a1-3)]GlcNAc
# Summary of the method: as §1
# [25] = target: Neu5Ac(a2-3)Gal(b1-4)[Fuc(a1-3)]GlcNAc6S
# Summary of the method: as §1
# [26] = target: Neu5Ac(a2-3)Gal6S(b1-4)GlcNAc
# Summary of the method: as §1
# [27] = target: Neu5Ac(a2-3)Gal6S(b1-4)[Fuc(a1-3)]GlcNAc
# Summary of the method: as §1
# Neu5Ac(a2-3)GalNAc = target: Neu5Ac(a2-3)GalNAc
# Summary of the method: as §1
# [28] = target: Neu5Ac(a2-3)GalNAc(b1-4)GlcNAc
# Summary of the method: as §1
# [29] = target: Neu5Ac(a2-3)[GalNAc(b1-4)]Gal(b1-4)Glc
# Summary of the method: as §1
# [30] = target: Neu5Ac(a2-3)[GalNAc(b1-4)]Gal(b1-4)GlcNAc
# Summary of the method: as §1
# [31] = target: Neu5Ac(a2-3)[Neu5Ac(a2-6)]GalNAc
# Summary of the method: as §1
# Neu5Ac(a2-6)Gal = target: Neu5Ac(a2-6)Gal
# Summary of the method: as §1
# Neu5Ac(a2-6)Gal(b1-4)Glc = target: Neu5Ac(a2-6)Gal(b1-4)Glc
# Summary of the method: as §1
# [32] = target: Neu5Ac(a2-6)Gal(b1-4)GlcNAc
# Summary of the method: as §1
# [33] = target: Neu5Ac(a2-6)Gal(b1-4)GlcNAc(b1-3)Gal(b1-4)GlcNAc
# Summary of the method: as §1
# [34] = target: Neu5Ac(a2-6)Gal(b1-4)GlcNAc(b1-3)Gal(b1-4)[Fuc(a1-3)]GlcNAc(b1-3)Gal(b1-4)[Fuc(a1-3)]GlcNAc
# Summary of the method: as §1
# [35] = target: Neu5Ac(a2-6)Gal(b1-4)GlcNAc6S
# Summary of the method: as §1
# Neu5Ac(a2-6)GalNAc = target: Neu5Ac(a2-6)GalNAc
# Summary of the method: as §1
# [36] = target: Neu5Ac(a2-6)GalNAc(b1-4)GlcNAc
# Summary of the method: as §1
# Neu5Ac(a2-8)Neu5Ac = target: Neu5Ac(a2-8)Neu5Ac
# Summary of the method: as §1
# [37] = target: Neu5Ac(a2-8)Neu5Ac(a2-3)Gal(b1-4)Glc
# Summary of the method: as §1
binder,measurement,setting,value
B1,glycan array binding signal (z-score),[1],-0.264
same,glycan array binding signal (z-score),[2],-0.385
same,glycan array binding signal (z-score),[3],-0.374
same,glycan array binding signal (z-score),Man(b1-4)GlcNAc,-0.379
same,glycan array binding signal (z-score),Neu5Ac(a2-3)Gal,-0.181
same,glycan array binding signal (z-score),[4],-0.369
same,glycan array binding signal (z-score),[5],-0.399
same,glycan array binding signal (z-score),[6],-0.204
same,glycan array binding signal (z-score),[7],-0.4
same,glycan array binding signal (z-score),[8],0.469
same,glycan array binding signal (z-score),[9],-0.345
same,glycan array binding signal (z-score),[10],-0.318
same,glycan array binding signal (z-score),[11],-0.383
same,glycan array binding signal (z-score),[12],-0.005
same,glycan array binding signal (z-score),[13],-0.399
same,glycan array binding signal (z-score),[14],-0.361
same,glycan array binding signal (z-score),Neu5Ac(a2-3)Gal(b1-4)Glc,-0.156
same,glycan array binding signal (z-score),[15],-0.354
same,glycan array binding signal (z-score),[16],-0.14
same,glycan array binding signal (z-score),[17],-0.104
same,glycan array binding signal (z-score),[18],-0.3
same,glycan array binding signal (z-score),[19],-0.397
same,glycan array binding signal (z-score),[20],-0.339
same,glycan array binding signal (z-score),[21],-0.21
same,glycan array binding signal (z-score),[22],-0.343
same,glycan array binding signal (z-score),[23],-0.328
same,glycan array binding signal (z-score),[24],-0.342
same,glycan array binding signal (z-score),[25],0.279
same,glycan array binding signal (z-score),[26],-0.183
same,glycan array binding signal (z-score),[27],-0.347
same,glycan array binding signal (z-score),Neu5Ac(a2-3)GalNAc,-0.327
same,glycan array binding signal (z-score),[28],-0.004
same,glycan array binding signal (z-score),[29],-0.213
same,glycan array binding signal (z-score),[30],-0.346
same,glycan array binding signal (z-score),[31],0.065
same,glycan array binding signal (z-score),Neu5Ac(a2-6)Gal,-0.241
same,glycan array binding signal (z-score),Neu5Ac(a2-6)Gal(b1-4)Glc,-0.214
same,glycan array binding signal (z-score),[32],-0.372
same,glycan array binding signal (z-score),[33],-0.357
same,glycan array binding signal (z-score),[34],-0.185
same,glycan array binding signal (z-score),[35],-0.077
same,glycan array binding signal (z-score),Neu5Ac(a2-6)GalNAc,-0.348
same,glycan array binding signal (z-score),[36],-0.371
same,glycan array binding signal (z-score),Neu5Ac(a2-8)Neu5Ac,-0.397
same,glycan array binding signal (z-score),[37],-0.05
